Values joined by “and” are separate entries in the source; they are usually repeats but may differ in a detail not shown here. Equal values may be shown once. The whole screen tested about 420,000 compounds, of which about 64,000 (15%) were called active. The inconclusive results got no clear call from the source; some entries with a clear call stand among them for comparison. Calls come from the whole dose curve; as a rule, active = well fitted inhibition curve with a large enough effect; inconclusive = small, poorly fitted or top-dose-only effect; inactive = flat fitted curve, though single readings scatter. No potency is given beside an inconclusive call; the fits are too rough.
Assay: qHTS for Inhibitors of human tyrosyl-DNA phosphodiesterase 1 (TDP1): qHTS in cells in absence of CPT; note: nearly all actives have a fitted effect of over 55% in size
Details: DT40 Tdp1-/- hTDP1 cells, no CPT, ATP luminescence, 48 h; activity change, negative = growth inhibition: at 46.2 µM (top of the series) unless noted
Method in brief: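 Chicken DT40 Tdp1-/- cells stably complemented with human TDP1 were seeded at 400 cells/well with DMSO in place of 20 nM camptothecin. After compound pinning, cells grew at least 48 hr at 37 °C; viability read by CellTiter-Glo luminescence.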
% is set by controls: 0 for no effect and ±100 for the full control effect; potency is the fitted concentration of half-maximal effect; tags give direction and shape of the fitted curve.

Structure (SMILES)	Potency	activity change, negative = growth inhibition
CC(C)c1ccc(NC(=O)c2cc(S(=O)(=O)NCC3COc4ccccc4O3)ccc2F)cc1 (configuration not stated)	active: 18.4 µM	–
OC(CCN1CCCC1)(c1ccccc1)C1CCCCC1 (configuration not stated)	inconclusive [inhibitor, single point]	–
CCOc1ccccc1N(CC)C(=O)c1nn(C)c2c1CSc1ccccc1-2	inconclusive [inhibitor, single point]	–
CCOc1ccccc1/C=C/c1onc(C)c1S(=O)(=O)N1CCC(C(=O)N(CC)CC)CC1	active: 20.6 µM and active: 16.4 µM	–
Nc1nnc(-c2cn(-c3ccccc3)nc2-c2ccc(Cl)cc2)o1	inconclusive [inhibitor, single point]	–
O=c1cc(-c2ccc(Cl)cc2)[nH]c2ccccc12	active: 6.51 µM	–
CCCOc1ccc(-c2nn(-c3ccccc3)cc2C2NC(=O)NC(C)=C2C(=O)OC(C)C)cc1 (configuration not stated)	inconclusive [inhibitor, single point]	–
COc1ccc(NC(=S)NCCNC(C)=O)cc1	inactive	–
C=CCN(c1ccccc1OC)S(=O)(=O)c1cccc(C(=O)OCC(=O)N2CCOCC2)c1	inconclusive [inhibitor, single point]	–
COc1cc(-c2nnc(SCC(=O)NCc3ccccc3Cl)o2)cc(OC)c1OC	inconclusive [inhibitor, partial curve, poor fit]	–
CCOc1ccc(Cn2nnc3c(=O)[nH]c(C4CCN(C(=O)c5ccccc5)CC4)nc32)cc1	inconclusive [inhibitor, single point]	–
CCOC(=O)c1c(NC(=O)CC2Nc3ccccc3NC2=O)sc(C)c1C (configuration not stated)	active: 18.4 µM	–
Cc1cccc(C)c1NC(=O)C(C1CC1)n1c(=O)c(-c2ccco2)nc2ccccc21 (configuration not stated)	inconclusive [inhibitor, single point]	–
COc1ccc(NC(=O)Cc2csc(NC(=O)Nc3ccccc3OC)n2)c(OC)c1	active: 13 µM	–
COC(=O)C1=C(C)N(Cc2ccc(C)cc2)C(=O)/C1=C\c1ccc(O)c(OC)c1	inactive	–
O=C(Cc1ccc(F)cc1)NC1CC(=O)N(c2ccccc2)C1 (configuration not stated)	inactive	–
O=C(CCNc1ccccc1)c1ccc2c(c1)OCO2	inconclusive [inhibitor, single point]	–
COc1cc(/C=C2\SC(c3ccc(C)cc3)=NC2=O)cc(OC)c1OC	inactive	–
CC(C)N1CCC(C)(C(=O)Nc2ccc(-n3cccc3)cc2)C1 (configuration not stated)	inconclusive [inhibitor, single point]	–
COc1cc(C(=S)N2CCOCC2)ccc1OC(=O)c1cccc(C)c1	inconclusive [inhibitor, single point]	–
COC(=O)c1c(NC(=O)CN2CCC3(O)CCCCC3C2c2ccc(OC)cc2OC)sc(C)c1C (configuration not stated)	inconclusive [inhibitor, single point]	–
O=C(Nc1ccncc1)C1CC1c1ccccc1 (configuration not stated)	inconclusive [inhibitor, single point]	–
Cc1c(C)c2ccc(OCC(=O)N(C)C3CCS(=O)(=O)C3)c(C)c2oc1=O (configuration not stated)	inactive	–
Cn1c(CCN2CCOCC2)nc2cc(NS(=O)(=O)c3ccccc3)ccc21	inconclusive [inhibitor, single point]	–

Structure (SMILES)	Potency	activity change, negative = growth inhibition
CCc1ccc(NC(=O)C(C)OC(=O)C2CCN(c3ccc(C(F)(F)F)cn3)CC2)cc1 (configuration not stated)	inconclusive [inhibitor, partial curve]	–
Cc1ccc(C)c(NC(=O)c2cc(-c3cc(C)cc(C)c3O)n[nH]2)c1	active: 13 µM	–
COC(=O)c1cccc(NC(=O)c2cccnc2C(=O)O)c1C	inconclusive [inhibitor, single point]	–
COc1ccc(CCNC(=O)CCC(=O)n2ncc3ccc(Cl)cc32)cc1OC	inactive	–
Cc1c(C)c2ccc(OCC(=O)Nc3ccccc3C(N)=O)cc2oc1=O	inactive	–
O=S(=O)(c1ccc2ccccc2c1)N1CCN(C2CCN(Cc3ccccc3)CC2)CC1	inconclusive [inhibitor, single point]	–
CCN(CCO)C(=O)c1cnn(-c2ncc3c(n2)-c2ccccc2CCC3)c1C1CC1	inconclusive [inhibitor, partial curve]	–
CCCCNCC(O)(c1ccc(Cl)cc1)c1ccc(Cl)cc1	active: 23.1 µM	–
COc1ccc(N2CCN(c3oc(/C=C/c4cc(OC)c(OC)c(OC)c4)nc3C#N)CC2)cc1	active: 3.66 µM	–
CCCN(CCC)c1nc2ccccc2n2c(C)nnc12	inconclusive [inhibitor, single point]	–
O=C(NCCc1ccccc1)c1cccc(Br)c1	inconclusive [inhibitor, single point]	–
CN1C2CCC1CC(NS(=O)(=O)c1cc(Cl)c(Cl)cc1Cl)C2 (configuration not stated)	inconclusive [inhibitor, single point]	–
COc1ccc2nc(COC(=O)c3cccc([N+](=O)[O-])c3)c(C(C)=O)[n+]([O-])c2c1	inactive	–
CCCc1cc(C(=O)N/N=C/c2ccc(C)o2)c2ccccc2n1	inconclusive [inhibitor, single point]	–
CCOC(=O)c1ccccc1NC(=O)N(C)CCc1c(C)nn(CC)c1C	active: 16.4 µM	–
Cc1cc(C)cc(Oc2nc3c(c(=O)n(C)c(=O)n3C)n2Cc2ccc(F)cc2)c1	inconclusive [inhibitor, single point]	–
COC(=O)c1sc(S(=O)(=O)N2CCN(c3ccccc3)CC2)c(C(=O)OC)c1C	inconclusive [inhibitor, single point]	–
O=S1(=O)C[C@H](N2CCC[C@@H]2CO)[C@@H](COCc2ccccc2)N1	inactive	–
O=C1CCN(Cc2nc(-c3ccc(Cl)cc3)no2)CCN1	inconclusive [inhibitor, single point]	–
CCc1nnc(SCC(=O)Nc2ccc(F)cc2F)c2cc3sc(C)cc3n12	inactive	–
COc1ccc(F)cc1S(=O)(=O)NCCc1sc2nc(-c3ccc(F)cc3)nn2c1C	inconclusive [inhibitor, single point]	–
Cc1ccc(C(=O)Nc2nc(C(N)C(C)C)cs2)cc1 (configuration not stated)	active: 16.4 µM	–
O=C(CCc1ccc(Oc2cc([N+](=O)[O-])cc([N+](=O)[O-])c2)cc1)N1CCCCC1	inconclusive [inhibitor, single point]	–
Cc1nc(N(C)C)c2sc(=S)n(-c3ccccc3)c2n1	inconclusive [inhibitor, single point]	–

Structure (SMILES)	Potency	activity change, negative = growth inhibition
Cc1ccc2c(CN(C)Cc3ccc(Cl)cc3Cl)cc(=O)oc2c1	inconclusive [inhibitor, single point]	–
COc1ccc(Nc2cc(C(=O)NCc3ccccc3OC)c3ccccc3n2)cc1	inconclusive [inhibitor, partial curve]	–
Cc1cc(OCC(=O)N(Cc2sccc2C)C2CCS(=O)(=O)C2)ccc1Cl (configuration not stated)	inconclusive [inhibitor, single point]	–
COc1cc(=O)n2c(c1C(=O)NC(C)c1ccco1)CCN(C(=O)c1ccc(F)cc1Cl)CC2 (configuration not stated)	inactive	–
CCc1cccc(C)c1NC(=O)CSc1nnc(CC)n2c1cc1occc12	active: 18.4 µM	–
COc1ccc(CNC(=O)CN2C(=O)c3cccnc3Oc3ccc(C)cc32)cc1	inconclusive [inhibitor, single point]	–
O=C(Cc1ccccc1)Nc1ccc2c(c1)OC1(CCCC1)O2	inconclusive [inhibitor, single point]	–
Cc1cc(C)c2c(CC(=O)Nc3c(C(=O)Nc4ccc(Cl)cc4)oc4ccccc34)coc2c1	inconclusive [inhibitor, single point]	–
Cc1cccc(C(=O)NCC(=O)N2CCN(c3ccc(Cl)cc3)CC2)c1	inconclusive [inhibitor, partial curve]	–
COc1ccc(S(=O)(=O)NC2CC3CCC2C3)cc1 (configuration not stated)	–	inconclusive: -33.2% [inhibitor]
Cc1cccc(-c2ocnc2C(=O)Nc2ccccc2NC(=O)c2ccccn2)c1	active: 0.291 µM	–
CC(C)(C)NC(=O)C[C@H]1C[C@H](C(=O)N2CCOCC2)[C@@]2(C)c3[nH]c4cc(-c5ccco5)ccc4c3CCN2C1=O	inconclusive [inhibitor, single point]	–
O=S(=O)(NCc1cn2ccsc2n1)c1ccc(Oc2ccccc2)cc1	active: 10.3 µM	–
O=C(Nc1nccs1)c1ccc(Cl)c([N+](=O)[O-])c1	inactive	–
COc1cc(NC(=O)c2ccc([N+](=O)[O-])o2)ccc1NC(=O)c1cccs1	active: 3.66 µM	–
Cc1cc(Nc2cccc(F)c2)nc(N2CCOCC2)n1	inconclusive [inhibitor, single point]	–
Cc1c(C(=O)N2CCCC(c3ccccc3)C2)sc2ncnc(NCCc3ccccn3)c12 (configuration not stated)	inactive	–
CN(C)CC(O)COc1cc2ccccc2cc1C(=O)N1CCCCC1 (configuration not stated)	inactive	–
O=C(NCc1csc(-c2cccs2)n1)C1CCC1	inactive	–
O=C(COC(=O)Cc1ccc(Br)cc1)Nc1c(F)c(F)c(F)c(F)c1F	inactive	–
CC(C)COc1ccc(C(=O)CCN2CCCCC2)cc1	active: 2.91 µM	–
CCc1nc2ccc(F)cc2c(C(=O)NC2CCCCC2C)c1C (configuration not stated)	inactive	–
O=C(NC(=S)Nc1cccc(Cl)c1)c1cncc(Br)c1	inconclusive [inhibitor, single point]	–
Cc1onc(-c2c(Cl)cccc2Cl)c1C(=O)NCCc1ccc(S(N)(=O)=O)cc1	inactive	–
